For 29 targets, log2 fold change results are on record in the supplement of paper PMC12819154, “High-throughput peptide-centric local stability assay extends protein–ligand identification to membrane proteins, tissues and bacteria” (Nature Structural & Molecular Biology, 2025).

UniProt Q86U28, sequence (Q86U28 whole entry): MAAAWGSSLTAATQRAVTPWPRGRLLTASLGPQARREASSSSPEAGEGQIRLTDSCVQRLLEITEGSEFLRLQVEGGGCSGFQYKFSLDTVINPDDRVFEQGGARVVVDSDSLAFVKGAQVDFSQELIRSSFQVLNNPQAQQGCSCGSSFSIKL
UniProt Q12768, sequence (Q12768 whole entry): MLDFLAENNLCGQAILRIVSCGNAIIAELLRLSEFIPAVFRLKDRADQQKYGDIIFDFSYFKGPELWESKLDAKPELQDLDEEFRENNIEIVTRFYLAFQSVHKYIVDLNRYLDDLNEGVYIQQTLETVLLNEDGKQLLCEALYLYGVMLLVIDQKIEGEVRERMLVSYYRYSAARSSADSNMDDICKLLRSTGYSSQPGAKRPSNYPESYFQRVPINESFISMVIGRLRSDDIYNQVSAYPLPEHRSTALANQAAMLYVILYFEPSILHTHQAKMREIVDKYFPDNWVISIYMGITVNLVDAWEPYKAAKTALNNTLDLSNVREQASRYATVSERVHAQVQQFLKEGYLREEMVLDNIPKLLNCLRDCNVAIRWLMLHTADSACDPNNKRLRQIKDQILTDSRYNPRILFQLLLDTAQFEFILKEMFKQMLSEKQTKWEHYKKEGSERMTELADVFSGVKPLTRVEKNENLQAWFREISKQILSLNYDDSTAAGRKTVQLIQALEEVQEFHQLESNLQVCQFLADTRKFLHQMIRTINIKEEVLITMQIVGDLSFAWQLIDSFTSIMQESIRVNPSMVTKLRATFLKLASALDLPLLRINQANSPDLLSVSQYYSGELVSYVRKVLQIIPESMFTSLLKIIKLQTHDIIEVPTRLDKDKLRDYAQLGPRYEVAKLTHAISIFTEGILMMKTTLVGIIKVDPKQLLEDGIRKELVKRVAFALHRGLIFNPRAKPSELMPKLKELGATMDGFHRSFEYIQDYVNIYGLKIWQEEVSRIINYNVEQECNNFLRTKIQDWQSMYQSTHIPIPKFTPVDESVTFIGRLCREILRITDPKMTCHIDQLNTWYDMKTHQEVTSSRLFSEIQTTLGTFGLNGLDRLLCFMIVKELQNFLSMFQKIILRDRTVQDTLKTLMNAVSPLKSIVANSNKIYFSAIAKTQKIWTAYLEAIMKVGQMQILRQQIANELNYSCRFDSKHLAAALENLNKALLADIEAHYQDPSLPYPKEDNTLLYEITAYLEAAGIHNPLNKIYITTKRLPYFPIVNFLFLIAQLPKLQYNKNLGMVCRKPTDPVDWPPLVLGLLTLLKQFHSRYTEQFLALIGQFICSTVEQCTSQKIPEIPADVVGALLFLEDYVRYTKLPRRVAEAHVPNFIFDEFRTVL
UniProt Q86UE8, sequence (Q86UE8 whole entry, looked up): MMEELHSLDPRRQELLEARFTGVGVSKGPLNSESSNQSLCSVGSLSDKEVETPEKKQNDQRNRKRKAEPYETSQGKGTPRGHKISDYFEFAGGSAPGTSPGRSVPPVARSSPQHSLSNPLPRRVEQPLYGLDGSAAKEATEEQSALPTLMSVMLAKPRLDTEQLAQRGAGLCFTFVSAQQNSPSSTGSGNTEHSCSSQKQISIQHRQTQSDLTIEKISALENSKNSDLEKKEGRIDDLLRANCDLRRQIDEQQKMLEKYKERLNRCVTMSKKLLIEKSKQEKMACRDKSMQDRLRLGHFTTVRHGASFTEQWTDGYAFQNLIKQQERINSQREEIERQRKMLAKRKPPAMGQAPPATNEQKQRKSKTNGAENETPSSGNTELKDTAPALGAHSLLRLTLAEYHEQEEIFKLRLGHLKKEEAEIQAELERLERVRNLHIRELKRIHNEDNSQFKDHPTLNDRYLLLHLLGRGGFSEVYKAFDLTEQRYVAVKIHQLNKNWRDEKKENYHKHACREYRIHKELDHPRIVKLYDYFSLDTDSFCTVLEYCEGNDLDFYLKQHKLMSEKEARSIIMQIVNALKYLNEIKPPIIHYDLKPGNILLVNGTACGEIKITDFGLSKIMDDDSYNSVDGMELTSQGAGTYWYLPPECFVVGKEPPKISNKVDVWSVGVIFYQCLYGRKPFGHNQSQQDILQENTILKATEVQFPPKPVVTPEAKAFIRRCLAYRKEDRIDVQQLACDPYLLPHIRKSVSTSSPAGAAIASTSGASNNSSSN
UniProt O14757, sequence (O14757 whole entry): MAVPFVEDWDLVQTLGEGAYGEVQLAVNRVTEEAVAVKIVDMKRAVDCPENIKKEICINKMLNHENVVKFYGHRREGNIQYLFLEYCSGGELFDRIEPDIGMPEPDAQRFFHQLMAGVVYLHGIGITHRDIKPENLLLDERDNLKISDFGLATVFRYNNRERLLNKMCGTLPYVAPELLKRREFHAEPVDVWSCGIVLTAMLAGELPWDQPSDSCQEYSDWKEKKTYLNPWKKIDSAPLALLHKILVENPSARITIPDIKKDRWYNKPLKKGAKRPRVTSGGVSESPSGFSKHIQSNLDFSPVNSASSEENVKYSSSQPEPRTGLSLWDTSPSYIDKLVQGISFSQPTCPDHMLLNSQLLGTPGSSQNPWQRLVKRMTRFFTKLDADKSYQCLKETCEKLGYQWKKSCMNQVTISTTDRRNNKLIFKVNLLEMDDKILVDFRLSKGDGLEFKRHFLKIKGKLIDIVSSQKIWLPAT
UniProt P42680, sequence (P42680 whole entry): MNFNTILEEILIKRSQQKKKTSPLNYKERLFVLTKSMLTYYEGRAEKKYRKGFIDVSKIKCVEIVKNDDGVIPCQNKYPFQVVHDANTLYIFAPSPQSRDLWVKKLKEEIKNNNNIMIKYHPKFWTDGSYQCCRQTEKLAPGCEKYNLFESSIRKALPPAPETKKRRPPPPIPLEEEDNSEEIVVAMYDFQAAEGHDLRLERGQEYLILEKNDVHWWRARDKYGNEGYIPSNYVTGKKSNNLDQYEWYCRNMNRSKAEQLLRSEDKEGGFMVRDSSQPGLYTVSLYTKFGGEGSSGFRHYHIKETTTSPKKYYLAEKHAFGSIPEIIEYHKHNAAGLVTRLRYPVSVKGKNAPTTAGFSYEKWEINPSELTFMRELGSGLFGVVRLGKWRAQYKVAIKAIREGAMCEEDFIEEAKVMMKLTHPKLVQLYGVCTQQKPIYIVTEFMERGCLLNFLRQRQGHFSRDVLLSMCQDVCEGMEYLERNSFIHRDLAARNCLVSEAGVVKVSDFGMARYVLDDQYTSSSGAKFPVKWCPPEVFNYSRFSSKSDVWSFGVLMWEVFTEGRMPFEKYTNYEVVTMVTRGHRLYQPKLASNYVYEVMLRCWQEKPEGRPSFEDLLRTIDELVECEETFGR
UniProt P04632, sequence (P04632 whole entry): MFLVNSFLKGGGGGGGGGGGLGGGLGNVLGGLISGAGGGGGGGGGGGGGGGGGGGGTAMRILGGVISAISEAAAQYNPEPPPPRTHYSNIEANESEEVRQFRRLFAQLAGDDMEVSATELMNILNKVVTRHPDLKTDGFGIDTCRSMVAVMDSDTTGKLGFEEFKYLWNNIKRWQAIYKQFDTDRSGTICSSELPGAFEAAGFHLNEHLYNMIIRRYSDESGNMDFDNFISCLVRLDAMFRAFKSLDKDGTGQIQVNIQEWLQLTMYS
UniProt Q9BWU1, sequence (Q9BWU1 whole entry): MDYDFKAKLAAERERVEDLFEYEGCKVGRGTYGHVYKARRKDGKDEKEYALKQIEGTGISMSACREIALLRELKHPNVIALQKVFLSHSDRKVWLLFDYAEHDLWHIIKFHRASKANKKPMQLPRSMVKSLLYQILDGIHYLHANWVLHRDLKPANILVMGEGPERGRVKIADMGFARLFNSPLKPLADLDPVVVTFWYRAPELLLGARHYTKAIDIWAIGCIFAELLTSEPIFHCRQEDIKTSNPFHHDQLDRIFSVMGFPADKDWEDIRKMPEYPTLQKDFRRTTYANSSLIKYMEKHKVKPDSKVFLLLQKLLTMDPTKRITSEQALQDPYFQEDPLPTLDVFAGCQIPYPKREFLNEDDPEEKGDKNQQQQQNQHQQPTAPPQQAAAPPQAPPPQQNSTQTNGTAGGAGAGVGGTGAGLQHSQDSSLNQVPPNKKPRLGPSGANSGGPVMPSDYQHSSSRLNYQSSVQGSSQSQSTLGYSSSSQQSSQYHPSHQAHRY
UniProt P07237, sequence (P07237 whole entry, looked up): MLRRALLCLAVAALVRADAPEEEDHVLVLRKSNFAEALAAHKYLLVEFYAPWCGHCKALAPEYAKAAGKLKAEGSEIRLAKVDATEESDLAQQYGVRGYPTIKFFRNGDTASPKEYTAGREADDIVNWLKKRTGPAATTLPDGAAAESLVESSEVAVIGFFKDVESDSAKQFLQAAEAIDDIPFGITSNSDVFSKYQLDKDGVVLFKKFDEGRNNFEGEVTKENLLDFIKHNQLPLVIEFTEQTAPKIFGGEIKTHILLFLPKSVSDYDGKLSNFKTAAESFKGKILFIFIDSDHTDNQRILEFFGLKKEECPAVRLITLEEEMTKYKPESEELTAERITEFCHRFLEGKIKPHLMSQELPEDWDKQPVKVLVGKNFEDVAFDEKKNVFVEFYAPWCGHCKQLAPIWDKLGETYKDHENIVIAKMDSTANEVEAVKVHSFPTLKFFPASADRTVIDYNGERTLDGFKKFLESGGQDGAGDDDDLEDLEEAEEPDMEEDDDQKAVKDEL

Compound in the test: CN[C@@H]1C[C@H]2O[C@@](C)([C@@H]1OC)n1c3ccccc3c3c4c(c5c6ccccc6n2c5c31)C(=O)NC4 [staurosporine]
In words: log2 fold change of tryptic peptide abundance, ligand vs vehicle (limited proteolysis) (log2 ratio); higher = more trypsin-susceptible (destabilized). The settings on record: ligand concentration: 20 uM; sample: K562 cleared lysate; digestion: 4 min, 22 C (HT-PELSA RT4min, Orbitrap Astral).
On to “ISCA2 (peptide sequence: LTDSCVQR, peptide start residue: 52) (UniProt Q86U28)”, for which the log2 fold change is 0.861.
The same measure for “UniProt Q9BWU1 (peptide sequence: DLKPANILVMGEGPER, peptide start residue: 151)”: -0.932.
For the target “UniProt P06576 (peptide sequence: AAPTAVHPVR, peptide start residue: 35)”, the log2 fold change was 0.808.
Consider “CTR9 (peptide sequence: GEEGSDDDETENGPKPK, peptide start residue: 966) (UniProt Q6PD62)”, for which the log2 fold change is 1.56.
The same measure for “UniProt O95747 (peptide sequence: EVLEGLEYLHK, peptide start residue: 129)”: 0.742.
In the case of “UniProt P42679 (peptide sequence: NILVSEDLVAK, peptide start residue: 357)” it was -1.01; in that of “ACACA (peptide sequence: LGTPELSTAERK, peptide start residue: 2151) (UniProt Q13085)”, 0.587.
Regarding “PRMT7 (peptide sequence: EAEPHPLWEYPCR, peptide start residue: 560) (UniProt Q9NVM4)”, the log2 fold change was determined as 0.759.
The same measure for “UniProt O14757 (peptide sequence: ILVENPSAR, peptide start residue: 245)”: -2.41; for “PIM1 (peptide sequence: LIDFGSGALLK, peptide start residue: 184) (UniProt P11309)”: -1.33; for “GPATCH8 (peptide sequence: KALGGDVSDQSLESHSQK, peptide start residue: 484) (UniProt Q9UKJ3)”: 1.36.
In the case of “P4HB (peptide sequence: LKAEGSEIR, peptide start residue: 70) (UniProt P07237)” it was 0.626; in that of “UniProt P48730 (peptide sequence: MMQGGVGIPTIR, peptide start residue: 58)”, -0.401.
In the case of “MOCS3 (peptide sequence: ILQSLSAAQELDPLTVR, peptide start residue: 424) (UniProt O95396)” it was -0.411; in that of “CAMK2A (peptide sequence: DLKPENLLLASK, peptide start residue: 136) (UniProt Q9UQM7)”, -3.45.
“FECH (peptide sequence: ECGVENIR, peptide start residue: 359) (UniProt P22830)”: the log2 fold change was -1.54.
“UniProt Q9UBF8 (peptide sequence: VWLPTAGFDHHVVR, peptide start residue: 367)”: the log2 fold change is -0.889.
The same measure for “TEC (peptide sequence: GCLLNFLR, peptide start residue: 448) (UniProt P42680)”: -1.96; for “MIF (peptide sequence: LLCGLLAER, peptide start residue: 79) (UniProt P14174)”: -0.364; for “UniProt O14733 (peptide sequence: ILMDLDVVLK, peptide start residue: 163)”: -0.371.
In the case of “AKT3 (peptide sequence: ITDFGLCK, peptide start residue: 290) (UniProt Q9Y243)” it was -0.976; in that of “UniProt Q12768 (peptide sequence: RVAEAHVPNFIFDEFR, peptide start residue: 1141)”, 0.42; in that of “PIK3R3 (peptide sequence: TAIEAFNETIK, peptide start residue: 479) (UniProt Q92569)”, -0.409.
In the case of “UniProt Q9UHA3 (peptide sequence: NEPIKYQR, peptide start residue: 76)” it was 0.373; in that of “CAPNS1 (peptide sequence: TDGFGIDTCR, peptide start residue: 136) (UniProt P04632)”, 0.372.
Turning to “ERP29 (peptide sequence: FDTQYPYGEKQDEFKR, peptide start residue: 60) (UniProt P30040)”, the log2 fold change is 0.783.
“RNASEL (peptide sequence: TFCEGSPR, peptide start residue: 393) (UniProt Q05823)”: the log2 fold change was -0.842.
As for “UniProt Q5VT25 (peptide sequence: LHREDFEILK, peptide start residue: 72)”, the log2 fold change was -0.952.
In the case of “TLK2 (peptide sequence: RKPPAMGQAPPATNEQK, peptide start residue: 345) (UniProt Q86UE8)” it was -0.319.
